Variants at the floor of the assay are shown more often than the library holds them.
B1: TPR 5TU (parent)
chain: GGAUCUUCUCGAUCUAACAAAAAAGACAAAUCUGCCACAAAGCUUGAGAGCAUCUUCGGAUGCAGAGGCGGCAGCCUUCGGUGGCGCGAUAGCGCCAACGUUCUCAACUAUGACACGCAAAACGCGUGCUCCGUUGAAUGGAGUUUAUCAUG

Variants of: B1
Test: polymerase ribozyme fitness, log enrichment relative to wild type (log ratio); higher = more active; in vitro selection for triplet polymerase activity
How it was run: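 Frozen incubation at −7 °C formed the core of a single, triplicate in vitro selection round applied to PCR-built, transcribed mutant libraries of each subunit of a heterodimeric triplet polymerase ribozyme. Extended constructs were gel-excised, captured with streptavidin beads and amplified by RT-PCR, and input and output libraries were Illumina-sequenced with a filter of ≥10 input reads and ≥1 read per output. Fitness is the logarithm of genotype enrichment relative to wild-type enrichment, with inverse-variance-weighted replicate averaging, and the logarithm is base 2.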

Variant	polymerase ribozyme fitness (log ratio)
G48A G94U G100A A110G G143C	≤ -4.2
A47U G59C G92U C103A A120U	≤ -4.2
A49G U139A	-4.08
A47C A60G U61G C69U C96G	≤ -4.2
A49G U53A G83A G94U	≤ -4.2
G48C G70A G88U C96G	≤ -4.2
A49C G68A U102G A107G	≤ -4.2
A47G C54A U61G C72U G94C C99U U102G G140A A142U A150C	≤ -4.2
A49U A60U G67A C87G A147U	≤ -4.2
G46U U56A	-0.107
G48A C57U C75G C85G U151A	≤ -4.2
A47C C93U A106U A107G	≤ -4.2
A47C U78G	≤ -4.2
G48U C63U A64U	≤ -4.2
A47C A49G C51G C75G A89C G94A U145A	≤ -4.2
A47G A91U C95G U102C G133U	≤ -4.2
A49C U109G G152U	-4.18
A47G C85G U90G C123A	≤ -4.2
A47G A52G U56A C87G	≤ -4.2
A49G G59C C87G C125U A138C	≤ -4.2
A49G U55A A73G	-3.1
G46U U55G U56C A91G G141U U151C	≤ -4.2
G48A G59C C63U G86C	-3.98
G48A C57A C125U	-1.74

Variant	polymerase ribozyme fitness (log ratio)
A47U G126C	-0.0812
G48C U55A C57G A91C C95A	≤ -4.2
A49C C96A	-3.04
A47C C57G G71A A97U U130A G141U	≤ -4.2
G48A C85U A97U U130C A150U	≤ -4.2
G48A U78G	≤ -4.2
A47U G141A	-1.46
A49C A60U G65C G136U G143C	≤ -4.2
A47C G48U C85U A106G	≤ -4.2
A49G C87G U148C	≤ -4.2
A47G G71C G81A C85U A121C A142U	≤ -4.2
A49C A64C G71A C87U U148A	≤ -4.2
G48U A49C C69G G86A C93U U139G A150G	≤ -4.2
A47U C57U G58C A60U A64G C69G G74A C87A U139C	≤ -4.2
A49C G65A C114G G136U	≤ -4.2
A49G C75G U77A U82C C93G C125U U134C U146C A147U	≤ -4.2
G48U G83A U134A G136A	-2.44
G48A U90C C132A	≤ -4.2
A49C U56A C85A C103A G128A	≤ -4.2
A47C G48A C87A	≤ -4.2
A47U U53A	-1.33
A49G C93G U102G A106G	≤ -4.2
A49G G50U C51U C96U A98C G126A U134G U146A	-3.95
A49C C93A	≤ -4.2

Variant	polymerase ribozyme fitness (log ratio)
A49C C93G	≤ -4.2
A47U A60U U77G A115G	≤ -4.2
A49G G59U C93A C125G G136C U144A	≤ -4.2
G48A C51G G92A C95G	≤ -4.2
A49U A121U C149G	≤ -4.2
A49C A52G U55A C57U C75A U77A C87U G94U G117A A122G U148A	≤ -4.2
G48A G83C	-1.78
G48A G59U C87U A97U G136A	-1.99
A49C U55A G59A C87G C96U	≤ -4.2
A49C U78G C87G A97C U130G U148A	≤ -4.2
G48A G58C A73G U77G C96U G140U	≤ -4.2
A49C G92C A137U G140U	≤ -4.2
A49C U55A	≤ -4.2
G48A C76G A107G	≤ -4.2
G48A C57U G83C U101C	-2.63
A47C C57U C76G G124A G152U	≤ -4.2
G48U C85U G140U	≤ -4.2
A47U C54A	-1.93
A49C C57U	-3.72
A47C U53A G81A U104G	-1.12
A49G A52C G94A U102C U151G	≤ -4.2
G48C A49C G59C C63A C85U A91C	≤ -4.2
A47C G80C U111G C123A	≤ -4.2
G48C C63U C69U G74A C93A U102G A107G	≤ -4.2

Variant	polymerase ribozyme fitness (log ratio)
A49G G140A	-3.77
G46U G84A G86A C125U	≤ -4.2
A49C U55A G58C C99U G141A	≤ -4.2
A49C A91U G100U	≤ -4.2
A49C G59A C87U U148A C149U	≤ -4.2
A47G G80U U90G C99G G117U A138C	≤ -4.2
G48A C54U C57A C76U A98G C99G C131G A138C	≤ -4.2
A49C U77G G94C	≤ -4.2
A49U A66U G84U A137U	≤ -4.2
A49C G81A A107C C108G U127A	≤ -4.2
G48C A60G C76G G94C U104C C131U	≤ -4.2
G48A G88A G128A	≤ -4.2
A49C C57G G68C G83C G84A U101G A115U	≤ -4.2
A47C A49C C54U G83U C93U C149G	≤ -4.2
A49C A119U	≤ -4.2
A49G C63A G92C C99A A106C C108U A113U C118A	≤ -4.2
A47U G59C G68U G80A C95U C103A G143U	≤ -4.2
A47C G48A G124U	-3.59
A49C C54A C99A A113G G140C A147C	≤ -4.2
A47C A60G C85A	-2.83
G48C A49G G80A G84U C85U	≤ -4.2
A49C C51U A73G	≤ -4.2
A47G C57A U90G A120G	≤ -4.2
A49C C93G G140A	≤ -4.2

Variant	polymerase ribozyme fitness (log ratio)
A49C U77A	≤ -4.2
A49C C54U A110G A138G A150C	≤ -4.2
A49C C54U U55A U78G G84U	≤ -4.2
A47C G50C C75A G84C C85G A119G U127G	≤ -4.2
G48C U61A G62A A91C U139A	≤ -4.2
G48C C79A U82C C85G A122C U151G	≤ -4.2
A49G U55A G71A C96G A137U	≤ -4.2
A47C A52C C54A U104A	≤ -4.2
A49C G68C C87A A91C U101C G133A	≤ -4.2
A47U A64U G124C A138C	≤ -4.2
A49C G50C C76U A91U A97U U111C G143C A150U	≤ -4.2
A49U A91U A97C U102A C105G U146C	≤ -4.2
A47G C87A G126A	≤ -4.2
A47C A66U C103G	≤ -4.2
A47C A89G C118A G133U	≤ -4.2
G48A G80C C93G U101A U109G A137C	≤ -4.2
G48U C87G A98U	≤ -4.2
A49G C131G G133A	≤ -4.2
A47U U78G G86A A97G A150U	≤ -4.2
A47U A52U C96U A120U G141C	≤ -4.2
G48A C103G A115U	≤ -4.2
A47G G48A G50U C76U U82G C116G U148G	≤ -4.2
A47C A60G C93A C95A C96U	≤ -4.2
G46U C85G A110C A137U U151A	≤ -4.2

Variant	polymerase ribozyme fitness (log ratio)
A49U C63U C93U C105G U145G	≤ -4.2
A47G G50U G94U G141C	-2.22
A49C C69G C96A	≤ -4.2
G48U C85A U127C	-2.74
A47G G50A C85A A113C C129U	≤ -4.2
A49C G59A A60G A106G	≤ -4.2
A49C A73G A91G C108U A119C C125A	≤ -4.2
A47C G50U G58U A91G A97U U102A	≤ -4.2
G48C G59C A73G C76U C96U U101C	-3.78
A49C U134C	≤ -4.2
G48C A49G C51A C87G C93U A97C	≤ -4.2
A49C G71C A120U G143A U145C U146A	≤ -4.2
A47U G48A U146G	-2.73
A47G C54G	-0.785
A47C U55A G80C A91G G152A	≤ -4.2
G48U G83C C108G U135G A150G	≤ -4.2
A47U G68A G83A C149A	≤ -4.2
A47U A52U C93A C125G U135C	≤ -4.2
G48A U61A G71A C85G A107U G124U G141U	≤ -4.2
A49U A73G G81C C85U	-2.64
A49G U55G C57U A60G C75G C76U U90A U102C U134G G140C	≤ -4.2
A49G A73U C96U U109G C123G C149G	≤ -4.2
G48A A119U U148A	≤ -4.2
A47C C85A C96U A97U	≤ -4.2

Variant	polymerase ribozyme fitness (log ratio)
A49G G68C G86A C116A	≤ -4.2
G46U G58A G59A C103G	≤ -4.2
G48U G58A C75A A91U C95A A119U	≤ -4.2
A49G C96G	-1.61
A47U U55A A89G A120U U144G	-0.697
A47U U56A C95U A119U U135A	-2.15
A47C A119G	0.0948
G48C C114A A115U	≤ -4.2
A49C A106G	-4.12
A49C U53A G59C G67A C99G A115G	≤ -4.2
A49C U77C G94A C131U	≤ -4.2
A49C U55A G65A A121G C131U	≤ -4.2
A47C G50C A91U G140A	≤ -4.2
A47C A49C U144G	-4
A47G A52U C72U C85A U135C G141C	≤ -4.2
A47U G68C G86A G88U U101C C116A G143C	≤ -4.2
A47C U134G G136A	-0.632
A49C C72U G88U A91C C105G U146G	≤ -4.2
A47C G83C G112C	≤ -4.2
G48A C63U C76A A138G	≤ -4.2
G48U G70A G92C G140A	≤ -4.2
A49U C51U U55A G71A U82A G83C U102G A120U G136A U148A	≤ -4.2
A49G G81U G92A G141C	≤ -4.2

Reference: the RNAGym collection of RNA variant scans (doi:10.1073/pnas.2313332121)
